# Laboratory results taken from the supplement of paper PMC4604168 (melanoma cell lines).
# This is one part of the list. Most values come without repeats; read them as rough.
# System: WM451Lu
# Assay: cell count relative to DMSO control; melanoma cells; higher = more viable cells
# Details: library dose: low library concentration; 72 h
# 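Also: cell number obtained by counting DAPI-stained nuclei in high-throughput microscope images with image analysis software, screen run in 1,536-well plates.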
row,SMILES,cell count [%]
1,"Cn1nnc2c(C(N)=O)ncn2c1=O [temozolomide] + O=C(Nc1cccc(Cl)c1)Nc1ncc(CCNc2ncnc3ccsc23)s1 [SNS314] (first compound 2 µM, partner dose 0.0008 µM)",135
2,"O=C(O)c1ccc2c(c1)nc(Nc1cccc(Cl)c1)c1ccncc12 + O=C(O)c1ccc(-c2c[nH]c3ncc(-c4ccccc4)cc23)cc1C1CCCC1 [GSK650394] (first compound 0.4 µM, partner dose 0.16 µM)",88.6
3,"O=C(Nc1cc(C(F)(F)F)cc(C(F)(F)F)c1)c1cc(Cl)ccc1O + OCc1c[nH]c2ccccc12 [Indole-3-carbinol] (first compound 0.016 µM, partner dose 0.8 µM)",110
4,"O=C(O)[C@@H]1[O][Sb](=[O])([O][Sb]2(=[O])[O][C@H]([C@H](O)CO)[C@H](O)[C@H](C(=O)O)[O]2)[O][C@H]([C@H](O)CO)[C@@H]1O (stereo partly drawn) [stibogluconate] + C[C@]1(c2nc3c(C(N)=O)cccc3[nH]2)CCCN1 [Veliparib] (first compound 2 µM, partner dose 1.4 µM)",119
5,"O=C(Nc1cc(C(F)(F)F)cc(C(F)(F)F)c1)c1cc(Cl)ccc1O + O=C(CCCCCCC(=O)Nc1ccccc1)NO [vorinostat] (first compound 0.016 µM, partner dose 0.08 µM)",94.1
6,"O=C(Nc1cc(C(F)(F)F)cc(C(F)(F)F)c1)c1cc(Cl)ccc1O + CC1(C)NC(=O)N(c2ccc([N+](=O)[O-])c(C(F)(F)F)c2)C1=O [nilutamide] (first compound 0.016 µM, partner dose 1 µM)",103
7,"O=C(O)c1ccc2c(c1)nc(Nc1cccc(Cl)c1)c1ccncc12 + OCc1c[nH]c2ccccc12 [Indole-3-carbinol] (first compound 0.4 µM, partner dose 0.8 µM)",130
8,"Cn1nnc2c(C(N)=O)ncn2c1=O [temozolomide] + COc1cc(Nc2ncc(F)c(Nc3ccc4c(n3)NC(=O)C(C)(C)O4)n2)cc(OC)c1OC [Tamatinib] (first compound 2 µM, partner dose 0.4 µM)",107
9,"Cc1cc(N2CCOCC2)cc2[nH]c(-c3c(NC[C@@H](O)c4cccc(Cl)c4)cc[nH]c3=O)nc12 + CCN(CC)CCCCNc1ncc2cc(-c3cc(OC)cc(OC)c3)c(NC(=O)NC(C)(C)C)nc2n1 [PD173074] (first compound 0.2 µM, partner dose 0.1 µM)",94.1
10,"Cc1cc(N2CCOCC2)cc2[nH]c(-c3c(NC[C@@H](O)c4cccc(Cl)c4)cc[nH]c3=O)nc12 + CCc1ccc(CCOc2ccc(CC3SC(=O)NC3=O)cc2)nc1 [pioglitazone] (first compound 0.2 µM, partner dose 2 µM)",94.2
11,"O=C(O)c1ccc2c(c1)nc(Nc1cccc(Cl)c1)c1ccncc12 + COCC[n+]1c2c(n(Cc3cnccn3)c1C)C(=O)c1ccccc1C2=O [YM155] (first compound 0.4 µM, partner dose 0.0004 µM)",70.5
12,"O=C(O)[C@@H]1[O][Sb](=[O])([O][Sb]2(=[O])[O][C@H]([C@H](O)CO)[C@H](O)[C@H](C(=O)O)[O]2)[O][C@H]([C@H](O)CO)[C@@H]1O (stereo partly drawn) [stibogluconate] + CCc1ccc(CCOc2ccc(CC3SC(=O)NC3=O)cc2)nc1 [pioglitazone] (first compound 2 µM, partner dose 2 µM)",112
13,"O=C(Nc1cc(C(F)(F)F)cc(C(F)(F)F)c1)c1cc(Cl)ccc1O + O=S(=O)(c1ccccc1)N(CC(F)(F)F)c1ccc(C(O)(C(F)(F)F)C(F)(F)F)cc1 [T0901317] (first compound 0.016 µM, partner dose 1.4 µM)",75.1
14,"O=C(Nc1cc(C(F)(F)F)cc(C(F)(F)F)c1)c1cc(Cl)ccc1O + CCCCCCCCc1ccc(CCC(N)(CO)CO)cc1 [fingolimod] (first compound 0.016 µM, partner dose 2 µM)",125
15,"O=C(Nc1cc(C(F)(F)F)cc(C(F)(F)F)c1)c1cc(Cl)ccc1O + O=C(Nc1cccc(Cl)c1)Nc1ncc(CCNc2ncnc3ccsc23)s1 [SNS314] (first compound 0.016 µM, partner dose 0.0008 µM)",89.4
16,"O=C(Nc1ccccc1)c1cc([N+](=O)[O-])ccc1Cl + c1cc(-c2cnn3cc(-c4ccc(OCCN5CCCCC5)cc4)cnc23)ccn1 [Dorsomorphin] (first compound 2 µM, partner dose 0.4 µM)",146
17,"O=C(O)[C@@H]1[O][Sb](=[O])([O][Sb]2(=[O])[O][C@H]([C@H](O)CO)[C@H](O)[C@H](C(=O)O)[O]2)[O][C@H]([C@H](O)CO)[C@@H]1O (stereo partly drawn) [stibogluconate] + Cn1nnc2c(C(N)=O)ncn2c1=O [temozolomide] (first compound 2 µM, partner dose 2 µM)",103
18,"Cc1cc(N2CCOCC2)cc2[nH]c(-c3c(NC[C@@H](O)c4cccc(Cl)c4)cc[nH]c3=O)nc12 + COc1ccc(COc2ccc(Cc3cnc(N)nc3N)cc2OC)cc1 [GW2580] (first compound 0.2 µM, partner dose 1 µM)",84.9
